# Assay results taken from article PMC4336329 (PLoS ONE, 2015).
# The whole screen tested about 310,000 compounds, of which about 14,000 (4.5%) showed an effect of 50% or more. The effect is printed as a negative number. Some of the results follow.
# Target: human ether-à-go-go-related gene (hERG) potassium channel (human, UniProt Q12809)
# Assay: primary screen, population patch clamp on CHO cells stably expressing hERG
# 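Note: peak tail current of the secondary pulse compared with the same well before compound.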
# human ether-à-go-go-related gene (hERG) potassium channel, sequence (Q12809 whole entry, looked up): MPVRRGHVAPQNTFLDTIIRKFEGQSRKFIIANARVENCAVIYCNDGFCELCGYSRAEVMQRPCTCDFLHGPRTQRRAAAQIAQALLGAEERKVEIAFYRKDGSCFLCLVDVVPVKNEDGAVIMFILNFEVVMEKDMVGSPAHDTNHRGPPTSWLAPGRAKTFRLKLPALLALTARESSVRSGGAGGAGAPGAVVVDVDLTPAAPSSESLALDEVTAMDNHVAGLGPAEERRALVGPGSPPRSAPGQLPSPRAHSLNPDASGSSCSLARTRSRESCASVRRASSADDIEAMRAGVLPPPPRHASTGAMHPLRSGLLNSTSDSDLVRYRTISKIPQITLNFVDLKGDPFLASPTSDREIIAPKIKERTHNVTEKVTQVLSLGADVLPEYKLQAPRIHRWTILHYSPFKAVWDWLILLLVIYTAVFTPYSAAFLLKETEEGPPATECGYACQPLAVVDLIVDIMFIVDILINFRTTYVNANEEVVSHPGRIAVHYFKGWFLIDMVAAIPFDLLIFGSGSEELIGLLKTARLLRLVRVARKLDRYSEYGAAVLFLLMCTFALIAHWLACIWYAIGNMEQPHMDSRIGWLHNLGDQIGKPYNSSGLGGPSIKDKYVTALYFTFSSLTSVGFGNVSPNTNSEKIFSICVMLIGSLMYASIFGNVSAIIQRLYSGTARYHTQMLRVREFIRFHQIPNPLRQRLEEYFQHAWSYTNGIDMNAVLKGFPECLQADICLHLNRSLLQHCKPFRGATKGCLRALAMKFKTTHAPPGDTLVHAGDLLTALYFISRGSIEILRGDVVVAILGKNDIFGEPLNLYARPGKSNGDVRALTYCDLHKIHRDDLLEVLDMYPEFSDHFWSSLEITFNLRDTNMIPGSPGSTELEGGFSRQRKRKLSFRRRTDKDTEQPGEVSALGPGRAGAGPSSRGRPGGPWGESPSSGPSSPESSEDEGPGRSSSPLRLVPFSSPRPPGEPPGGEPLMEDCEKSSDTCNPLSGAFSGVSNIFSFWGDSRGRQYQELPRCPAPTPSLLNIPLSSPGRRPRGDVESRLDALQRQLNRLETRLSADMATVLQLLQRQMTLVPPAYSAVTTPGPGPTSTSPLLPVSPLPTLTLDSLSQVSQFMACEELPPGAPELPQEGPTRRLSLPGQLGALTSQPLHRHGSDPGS
row,SMILES,"hERG current change (%, negative = inhibition) at 10uM [%]"
1,COc1ccc(Cl)cc1NC(=O)CSc1nnc(COc2ccccc2)n1N,-5.96
2,CCCCN1C(=S)NC[C@@H]1Cc1cccc2ccccc12,1.69
3,COc1ccc(/C=N/Nc2nc(-c3cccc(S(=O)(=O)N4CCCC4)c3)cs2)c(OC)c1,-10.2
4,Cc1ccccc1-c1oc(C)c(C)[n+]1[O-].Cl,6.03
5,CCOc1ccc(N(C(=O)c2cc3ccccc3oc2=O)C2C=CS(=O)(=O)C2)cc1 (centres unmarked),-2.96
6,CCCCNC(=O)c1onc(CSc2ccc(F)cc2)c1C(=O)O,4.82
7,Cc1ccc(CNC(=O)c2cccc(S(C)(=O)=O)c2)cc1,-0.651
8,Oc1csc(Cc2nc(-c3ccccc3F)cs2)n1,18.9
9,O=C(Nc1cccc(C(=O)O)c1)/C(=C\c1ccc2c(c1)OCO2)NC(=O)c1ccco1,24.3
10,CCSc1nnc(-c2ccccc2NC(C)=O)c(=O)[nH]1,-15.5
11,CCCCN(C)CC(O)Cn1cc(/C=C/C(=O)c2ccc(C)cc2)c2ccccc21 (centres unmarked),-41.4
12,COc1ccc(/C(C)=N\NC(=O)c2ccc(-c3ccccc3)cc2)c(F)c1,2.79
13,C=CCOc1ccc(-c2nc3c(c(=O)[nH]c(=O)n3Cc3ccccc3)n2CCCOC)cc1,5.96
14,Cc1ccccc1/C=N/NC(=O)c1sccc1C,3.39
15,CN1CCN(S(=O)(=O)c2ccc(NC(=S)NC(=O)C(C)(C)C)cc2)CC1,1.03
16,CCCCc1ccc(NC(=O)CSc2nc(=O)n(CCCN3CCOCC3)c3c2CCC3)cc1,-64.5
17,Cc1ccc(S(=O)(=O)N2CCN(C(=O)c3n[nH]c(=O)c4ccccc34)CC2)cc1,-43.5
18,CC(=O)N1CCN(C(=O)C2(NC(=O)Nc3ccc(C)cc3)CCCCC2)CC1,17.1
19,COc1cc(C(=O)O[C@H]2C/C(C)=C/CC[C@]3(C)O[C@@H]3C(O)C2C(C)C)cc(OC)c1OC (some centres unmarked),10.3
20,S=C(NCc1cccs1)Nc1ccc(Cl)cc1,9.4
21,O=C(Nc1cccc(C(F)(F)F)c1)C(Sc1n[nH]c(=O)[nH]c1=O)c1ccccc1 (centres unmarked),-4.05
22,COc1cccc(CN2CCNC(=O)C2CC(=O)NCCn2nc(C)cc2C)c1OC (centres unmarked),13.7
23,Nc1ccc2nc(CCCCc3nc4ccccc4[nH]3)[nH]c2c1,10.5

row,SMILES,"hERG current change (%, negative = inhibition) at 10uM [%]"
1,CCc1noc(C)c1C(=O)Nc1nc(-c2cc(C)ccc2C)c(C)s1,16.7
2,COC(=O)[C@@H](Cc1c[nH]c2ccccc12)NC(=O)CCC(=O)c1ccc(F)cc1,7.13
3,CCOc1ccc(C(C)NC(=O)c2cc(=O)[nH]c3ccccc23)cc1OCC (centres unmarked),23.3
4,c1ccc(NC2=NCCCCS2)cc1,-6.37
5,COc1cccc(CNc2nc3nc(C)cc(=O)n3[nH]2)c1,-3.91
6,CS(=O)(=O)CCC(C(=O)OCC(=O)c1ccc(Cl)cc1)N1C(=O)c2ccccc2C1=O (centres unmarked),-19.1
7,O=C(/C=C\c1ccco1)c1ccc(NC(=O)c2ccco2)cc1,14.2
8,CN(C)CCN1CC(O)=C(c2nc3ccccc3s2)C1=N,-13.7
9,O=C(NN1CC(C(=O)OCc2ccc(Cl)cc2Cl)CC1=O)c1ccccc1 (centres unmarked),-16.5
10,COc1ccc(NC(=O)C(=O)NCCO)cc1Cl,13.2
11,CCOc1ccc(NC(=O)CN(C)C(=O)CCCn2c(=O)oc3ccccc32)cc1OCC,-36.7
12,CN1CCN(c2ccccc2NC(=O)c2cccc([N+](=O)[O-])c2)CC1,-80.1
13,COc1ccc(CCN(C)C(=O)c2cc(-c3ccc(C)cc3)nc3ccccc23)cc1OC,-26.7
14,C=CCn1c(SCC(=O)Nc2cc(C)on2)nc2c([nH]c3ccccc32)c1=O,9.49
15,COc1ccc(S(=O)(=O)N(C)C)cc1NC(=O)CSc1nncs1,35.5
16,Cc1ccc(C(=O)OCC(=O)Nc2sc3c(c2C#N)CCCC3)cc1NC(=O)c1ccco1,2.78
17,CC(=O)CC[C@@H](C)O[C@@H]1OC(C)[C@H](O)CC1O (some centres unmarked),20.2
18,CC(C)CNC(=O)NC1C(NC(=O)NCC(C)C)N(C)C(=O)N1C (centres unmarked),3.82
19,CN(CCC#N)C(=O)COC(=O)c1cccnc1Nc1ccccc1F,-13.8
20,O=C(O)C1CCCN(S(=O)(=O)c2ccccc2)C1 (centres unmarked),18.3
21,Cc1nc2ccccc2nc(C)c1=NOCc1cccc(F)c1,2.12
22,CC(C)c1nnc(NC(=O)C2CCCN2S(=O)(=O)c2ccc(Cl)cc2)s1 (centres unmarked),7.71
23,COc1cc(N=c2c([N+](=O)[O-])nn(-c3ccc4c(c3)OCCO4)n2O)cc(OC)c1,-0.72

row,SMILES,"hERG current change (%, negative = inhibition) at 10uM [%]"
1,CCOC(=O)c1ccccc1NC(=O)COc1ccccc1,7.31
2,Cc1cc(-n2c(C)cc(C(=O)CN3C(=O)NC4(CCCCC4)C3=O)c2C)no1,-21.1
3,CCOC(=O)COn1c(-n2nc(C)cc2C)nc2ccccc2c1=O,0.487
4,Cc1ccc(O)c(C)c1,17.2
5,COc1ccc(OC)c(NC(=O)C2C3CC4OC(=O)C2C4C3)c1 (centres unmarked),11.2
6,Cc1ccc(NC(=O)c2ccc3c(c2)C(=O)N(Cc2cccnc2)C3=O)c(C)c1,16.6
7,COCCCNC(=O)CN(c1cccc(Cl)c1C)S(C)(=O)=O,1.39
8,Fc1ccc(Sc2ccccc2CNC2=NCCN2)cc1.I,-16
9,Cc1cc(S(=O)(=O)N2CCN=C2c2ccccc2)ccc1F,7.23
10,COc1ccc(NC(=O)C(C)N=C2NS(=O)(=O)c3ccccc32)cc1S(N)(=O)=O (centres unmarked),-2.12
11,O=C(O)C/C(=C\c1cc2c(cc1Br)OCO2)c1nc2ccccc2s1,6.44
12,FC(F)Oc1ccc(NC(=S)NC2CCSc3ccccc32)cc1 (centres unmarked),-2.01
13,COc1cc(C(=O)N/C(=C\c2cn(C)c3ccccc23)C(=O)N2CCOCC2)cc(OC)c1OC,11.7
14,COc1ccc(C2C3=C(CC(C)(C)CC3=O)Oc3ncn(CCCn4ccnc4)c(=N)c32)cc1 (centres unmarked),-16.6
15,COc1ccc(CNc2nc3ccccc3n2CCN2CCOCC2)cc1,-64.6
16,CCc1ccccc1N1CC23C=CC(O2)C(C(=O)OC)C3C1=O (centres unmarked),14.5
17,Fc1ccc(CNC(=S)NC2CCCCC2)cc1,-19.9
18,CC(C)=C1Cc2ccccc2C1=O,5.59
19,CC(C)NS(=O)(=O)c1ccc(OCC(=O)Nc2ccc(F)cc2)cc1,14.6
20,Cn1c(O)c(C=NCCN2CCOCC2)c(=O)n(C)c1=S,-1.85
21,O=C(/C=C/c1ccccc1[N+](=O)[O-])NCCCn1ccnc1,2.43
22,CC1CC(C)CN(CCCCOc2ccc([N+](=O)[O-])cc2)C1.O=C(O)C(=O)O (centres unmarked),-78.8
23,O=[N+]([O-])c1ccc(Cl)cc1N1CCCC1,0.717

row,SMILES,"hERG current change (%, negative = inhibition) at 10uM [%]"
1,Cc1ccccc1-n1c(C)nc2sccc2c1=O,-2.18
2,Cc1ccc(Cn2nnc3c(=O)[nH]c(C4CCN(S(=O)(=O)/C=C/c5ccccc5)CC4)nc32)cc1,-9.62
3,COc1ccccc1CC(=O)NNC(=O)c1cccs1,26.2
4,Cc1nc2ccccc2c(=O)n1NC(=O)c1cccnc1Cl,26.9
5,COc1cc(C#N)c(NS(=O)(=O)c2ccc3[nH]c(=O)sc3c2)cc1OC,16.9
6,CCN(CC)C(=O)Oc1ccc2ccccc2c1Br,-3.86
7,Cn1cnc(S(=O)(=O)N2CCc3ccccc32)c1,11.1
8,COC(=O)c1cc(Cn2nc(C(=O)O)c3ccccc3c2=O)oc1C,15.8
9,CC(=O)Nc1ccc(Oc2nc(C(F)(F)F)nc3ccccc23)cc1,22.8
10,Nn1c(SCC(=O)Nc2cc(S(=O)(=O)N3CCOCC3)ccc2Cl)nnc1-c1cccnc1,11.2
11,Cc1ccc(NC(=S)N2CCN(C)CC2)c(C)c1,6.94
12,CN=c1scc(-c2ccc(Br)cc2)n1C,-31.7
13,COCCCNC(=S)Nc1ccccc1[N+](=O)[O-],18.8
14,Cc1ccc(-n2c(SCC(=O)N3CCCc4ccccc43)nnc2-c2cccnc2)c(C)c1,-0.0294
15,CC(C)C(=O)Nc1ccc(Br)cc1Cl,1.21
16,CSc1ccccc1C(=O)Nc1ccc2c(c1)CCC2,-30.5
17,CCOC(=O)c1cc(S(=O)(=O)NC2CCC(C)CC2)cn1C (centres unmarked),-3.98
18,COCCCN1C(=O)N(c2ccccc2)C(=O)C1CC(=O)Nc1ccccc1 (centres unmarked),18.6
19,S=C1SCN(Cc2cccnc2)CN1Cc1cccnc1,-20.9
20,COc1ccc(C(=O)N2CCC(C(=O)c3c(C)cc(C)cc3C)CC2)cc1,-55.3
